Structures can show the parent of a compound that is named as a salt. This is one part of the list. Single values are uncertain, as repeats are few or missing.
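Note: viability estimated indirectly by image-based GFP quantification with live-cell imaging of the constitutively GFP-expressing human colorectal cancer line, no immune cells added.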

This assay relates to HCT116-GFP. The experiment in a line: HCT116-GFP viability (GFP intensity) relative to untreated control, monoculture; higher = less cancer cell killing. The conditions noted are these: culture: HCT116-GFP monoculture; 10 µM; 72 h.
As for `C[C@]12CC[C@@H]3c4ccc(OC(=O)N(CCCl)CCCl)cc4CC[C@H]3[C@@H]1CC[C@@H]2O` [Estramustine], the HCT116-GFP viability is 25.4%.

For `CCC1(c2ccc(N)cc2)CCC(=O)NC1=O` (configuration not stated) [Glutethimide, para-amino], the HCT116-GFP viability is 101%.

Take `CC[C@@]1([C@@H]2O[C@@H]([C@H]3O[C@@](O)(CO)[C@H](C)C[C@@H]3C)C[C@@H]2C)CC[C@H]([C@]2(C)CC[C@]3(C[C@H](O)[C@@H](C)[C@@H]([C@@H](C)[C@@H](OC)[C@H](C)C(=O)O)O3)O2)O1` [Monensin sodium salt]: the HCT116-GFP viability amounted to 24.3%.

`CCN(C)C(=O)Oc1cccc([C@H](C)N(C)C)c1` [Rivastigmine]: the HCT116-GFP viability worked out at 114%.

Regarding `CN(C)C(=O)Oc1cc(OC(=O)N(C)C)cc(C(O)CNC(C)(C)C)c1` (configuration not stated) [Bambuterol hydrochloride], the HCT116-GFP viability turned out to be 102%.

In the case of `CCn1cc(C(=O)O)c(=O)c2cc3c(cc21)OCO3` [Oxolinic acid], the HCT116-GFP viability turned out to be 95.9%.

As for `C[C@]12CC[C@H](O)C[C@@H]1CC[C@@H]1[C@@H]2CC[C@]2(C)C(=O)CC[C@@H]12` [Epiandrosterone], the HCT116-GFP viability stood at 97.8%.

As for `NCC(O)c1ccc(O)cc1` (racemic) [(+,-)-Octopamine hydrochloride], the HCT116-GFP viability came out at 93.3%.

For the molecule `CN1[C@@H]2CC[C@H]1C[C@@H](OC1c3ccccc3CCc3ccccc31)C2` [Deptropine citrate], the HCT116-GFP viability is 76.3%.

`COc1ccc(Cc2nccc3cc(OC)c(OC)cc23)cc1OC` [Papaverine hydrochloride]: the HCT116-GFP viability was found to be 56.8%.

For `CCC1(CC)C(=O)C=CNC1=O` [Pyrithyldione], the HCT116-GFP viability turned out to be 84.6%.

On to `CC(C)(C)NCC(O)c1cc(Cl)c(N)c(Cl)c1` (configuration not stated) [Clenbuterol hydrochloride], for which the HCT116-GFP viability was determined as 92.9%.

As to `Fc1ccc(C(OCCN2CCN(CCCc3ccccc3)CC2)c2ccc(F)cc2)cc1`, the HCT116-GFP viability turned out to be 24%.

As for `CC(=O)O[C@H]1C[C@H](O[C@H]2[C@@H](O)C[C@H](O[C@H]3[C@@H](O)C[C@H](O[C@H]4CC[C@@]5(C)[C@H](CC[C@@H]6[C@@H]5C[C@@H](O)[C@]5(C)[C@@H](C7=CC(=O)OC7)CC[C@]65O)C4)O[C@@H]3C)O[C@@H]2C)O[C@H](C)[C@H]1O[C@@H]1O[C@H](CO)[C@@H](O)[C@H](O)[C@H]1O` [Lanatoside C], the HCT116-GFP viability was 3.68%.

Take `COc1ccc(CCN2CCC(Nc3nc4ccccc4n3Cc3ccc(F)cc3)CC2)cc1` [Astemizole]: the HCT116-GFP viability came to 5.53%.

Take `Oc1cc(Cl)ccc1Oc1ccc(Cl)cc1Cl` [Triclosan]: the HCT116-GFP viability was 77.8%.

As to `C[N+]1([O-])[C@@H]2C[C@@H](OC(=O)[C@H](CO)c3ccccc3)C[C@H]1[C@@H]1O[C@@H]12` (some centres not stated) [Scopolamin-N-oxide hydrobromide], the HCT116-GFP viability came to 114%.

In the case of `C[C@]12N[C@H](Cc3ccccc31)c1ccccc12` [Dizocilpine maleate], the HCT116-GFP viability came out at 88.8%.

On to `O[C@@H]1CCCC[C@H]1N1CCC(c2ccccc2)CC1` [L(-)-vesamicol hydrochloride], for which the HCT116-GFP viability amounted to 101%.

For the molecule `CCN(CC)C(C)C(=O)c1ccccc1` (configuration not stated) [Amfepramone hydrochloride], the HCT116-GFP viability amounted to 97.5%.

Take `CO[C@]12C[C@@H](COC(=O)c3cncc(Br)c3)CN(C)[C@@H]1Cc1cn(C)c3cccc2c13` [Nicergoline]: the HCT116-GFP viability was 69.9%.

As for `CC(=O)OCC1=C(C(=O)O)N2C(=O)[C@@H](N)[C@H]2SC1` [Cephalosporanic acid, 7-amino], the HCT116-GFP viability is 89.6%.

On to `C[N+]12CCC(CC1)C(OC(=O)C(O)(c1ccccc1)c1ccccc1)C2` (configuration not stated) [Clidinium bromide], for which the HCT116-GFP viability came out at 106%.

For the molecule `C[C@@]12N[C@@H](Cc3ccccc31)c1ccccc12` [(-)-MK 801 hydrogen maleate], the HCT116-GFP viability came out at 102%.

On to `C[C@]12Cc3c[nH]nc3C[C@@H]1CC[C@@H]1[C@@H]2CC[C@@]2(C)[C@H]1CC[C@]2(C)O` [Stanozolol], for which the HCT116-GFP viability stood at 94.9%.

Regarding `CC(C)C[C@H](CN)CC(=O)O` [Pregabalin], the HCT116-GFP viability came out at 98.7%.

`CC(C)(C)NCC(O)c1ccccc1Cl` (configuration not stated) [Tulobuterol]: the HCT116-GFP viability was 93.8%.

As to `COc1cc([C@@H]2c3cc4c(cc3[C@H](O)[C@H]3COC(=O)[C@H]23)OCO4)cc(OC)c1OC` [Podophyllotoxin], the HCT116-GFP viability was found to be 8.81%.

Turning to `CCC1(c2cccc(O)c2)CCCCN(C)C1` (configuration not stated) [Meptazinol hydrochloride], the HCT116-GFP viability was 102%.

Consider `C[C@@H]1CC[C@H]2[C@@H](C)C(=O)O[C@@H]3O[C@@]4(C)CC[C@@H]1[C@]32OO4` [Artemisinin], for which the HCT116-GFP viability was found to be 65.9%.

For `CCN(C(C)=O)c1cccc(-c2ccnc3c(C#N)cnn23)c1` [Zaleplon], the HCT116-GFP viability was found to be 87.8%.

For `NCCc1c[nH]c2ccc(O)cc12` [Serotonin hydrochloride], the HCT116-GFP viability was 89%.

As for `CCC(COC(=O)c1cc(OC)c(OC)c(OC)c1)(c1ccccc1)N(C)C` (configuration not stated) [Trimebutine], the HCT116-GFP viability is 70.6%.

As for `Clc1ccc(C(OCCN2CCCCC2)c2ccccc2)cc1` (configuration not stated) [Cloperastine hydrochloride], the HCT116-GFP viability was determined as 68.7%.

Turning to `CN1CCN(C(=O)OC2c3nccnc3C(=O)N2c2ccc(Cl)cn2)CC1` (configuration not stated) [Zopiclone], the HCT116-GFP viability amounted to 102%.

As for `C[C@]12CC[C@H](O)C[C@H]1CC[C@@H]1[C@@H]2C[C@@H](O)[C@]2(C)[C@@H](C3=CC(=O)OC3)CC[C@]12O` [Digoxigenin], the HCT116-GFP viability is 2.78%.

On to `CC(Cc1ccccc1)NCCC(c1ccccc1)c1ccccc1` (configuration not stated) [Prenylamine lactate], for which the HCT116-GFP viability stood at 37%.

Turning to `CC(=O)NC1CCSC1=O` (racemic) [N-Acetyl-DL-homocysteine Thiolactone], the HCT116-GFP viability is 79.2%.

As to `NC(=O)C[S+]([O-])C(c1ccccc1)c1ccccc1` (configuration not stated) [Modafinil], the HCT116-GFP viability came out at 98.5%.

For the molecule `Cc1cccc(C)c1NC1=NCCCS1` [Xylazine], the HCT116-GFP viability is 100%.

As for `O=P1(NCCCl)OCCCN1CCCl` (configuration not stated) [Ifosfamide], the HCT116-GFP viability was 99.8%.

On to `C=C(C)[C@@H]1[C@H]2OC(=O)[C@@H]1[C@]1(O)C[C@H]3O[C@]34C(=O)O[C@H]2[C@]14C` [Picrotoxinin], for which the HCT116-GFP viability was 103%.

In the case of `CC(C)c1c(CN(C)C(C)Cc2ccccc2)n(C)n(-c2ccccc2)c1=O` (configuration not stated) [Famprofazone], the HCT116-GFP viability is 87%.

Regarding `NC(=O)CN1CCCC1=O` [Piracetam], the HCT116-GFP viability worked out at 94.2%.

With `CC(=O)OCC(=O)[C@H]1CC[C@H]2[C@@H]3CC[C@H]4C[C@H](O)CC[C@]4(C)[C@H]3C(=O)C[C@]12C` [Alfadolone acetate], the HCT116-GFP viability was 87%.

As to `CC(C)CC(N(C)C)C1(c2ccc(Cl)cc2)CCC1` (configuration not stated) [Sibutramine hydrochloride], the HCT116-GFP viability was found to be 87.5%.

As to `O=C([O-])c1ccccc1-c1c2cc(Br)c(=O)cc-2oc2[c]([Hg+])c([O-])c(Br)cc12.[Na+].[Na+].[OH-]` [Merbromin], the HCT116-GFP viability turned out to be 86.7%.

With `O=c1[nH]c2ccccc2n1CCCN1CCC(n2c(=O)[nH]c3cc(Cl)ccc32)CC1` [Domperidone], the HCT116-GFP viability stood at 84.3%.

`C#C[C@]1(O)CC[C@H]2[C@@H]3CCC4=CC(=O)CC[C@]4(C)[C@H]3CC[C@@]21C` [Ethisterone]: the HCT116-GFP viability was found to be 90.9%.

Consider `CC(C)[N+](C)(CCC(C(N)=O)(c1ccccc1)c1ccccc1)C(C)C` [Isopropamide iodide], for which the HCT116-GFP viability was 108%.

Consider `S=C(NC1CCCCC1)N1CCC(c2cnc[nH]2)CC1` [Thioperamide maleate], for which the HCT116-GFP viability was found to be 97.5%.

As to `COc1ccc2c(c1)[C@]13CCCC[C@@H]1[C@H](C2)N(C)CC3` [Dextromethorphan hydrobromide monohydrate], the HCT116-GFP viability stood at 82.1%.

As to `CNCC(O)c1ccc(O)cc1` (racemic) [(+,-)-Synephrine], the HCT116-GFP viability was 99.5%.

As for `C[C@]12CC[C@@H](O)C[C@@H]1CC[C@@H]1[C@@H]2CC[C@]2(C)C(=O)CC[C@@H]12` [Androsterone], the HCT116-GFP viability was determined as 103%.

For `C=CC[C@]1(O)CC[C@H]2[C@@H]3CCC4=CC(=O)CCC4=C3C=C[C@@]21C` [Altrenogest], the HCT116-GFP viability stood at 80%.

With `C1CCc2nnnn2CC1` [Pentylenetetrazole], the HCT116-GFP viability was determined as 106%.

On to `CC(Cc1ccc(O)cc1)NCC(O)c1cc(O)cc(O)c1` (configuration not stated) [Fenoterol hydrobromide], for which the HCT116-GFP viability stood at 89.7%.

In the case of `CC(C)N(CCC(C(N)=O)(c1ccccc1)c1ccccn1)C(C)C` (configuration not stated) [Disopyramide], the HCT116-GFP viability came to 105%.

In the case of `C[C@H](N)[C@H](O)c1ccc(O)c(O)c1` [Levonordefrin], the HCT116-GFP viability is 111%.

Consider `O=[N+]([O-])O[C@@H]1CO[C@H]2[C@@H]1OC[C@@H]2O` [Isosorbide mononitrate], for which the HCT116-GFP viability is 108%.

As for `CN[C@@H]1C[C@@H](c2ccc(Cl)c(Cl)c2)c2ccccc21` [Indatraline hydrochloride], the HCT116-GFP viability stood at 51%.

Regarding `CN1[C@@H]2CC[C@H]1C[C@@H](OC(=O)[C@H](CO)c1ccccc1)C2` [Hyoscyamine (L)], the HCT116-GFP viability is 114%.

With `C[C@]12CC[C@H]3[C@@H](CCC4=CC(=O)CC[C@@H]43)[C@@H]1CC[C@@H]2O` [Nandrolone], the HCT116-GFP viability was 96%.

Consider `COc1ccc(CN2CCNCC2)c(OC)c1OC` [Trimetazidine dihydrochloride], for which the HCT116-GFP viability was determined as 104%.

Consider `CCCN1C[C@H](CSC)C[C@@H]2c3cccc4[nH]cc(c34)C[C@H]21` [Pergolide mesylate], for which the HCT116-GFP viability came to 93.9%.

For the molecule `COc1ccc(CCN)cc1OC` [Homoveratrylamine], the HCT116-GFP viability turned out to be 93%.

Regarding `CC[C@@]1(O)C(=O)OCc2c1cc1n(c2=O)Cc2cc3ccccc3nc2-1` [Camptothecine (S,+)], the HCT116-GFP viability was 6.54%.

As to `CCC(=O)O[C@@](Cc1ccccc1)(c1ccccc1)[C@@H](C)CN(C)C` [Levopropoxyphene napsylate], the HCT116-GFP viability was determined as 107%.

For `C[N+](C)(C)CCCCCCCCCC[N+](C)(C)C` [Decamethonium bromide], the HCT116-GFP viability worked out at 97.4%.

With `c1ccc2nc(N3CCNCC3)ccc2c1` [Quipazine dimaleate salt], the HCT116-GFP viability amounted to 105%.

With `C[N+]1(C)[C@@H]2CC[C@H]1C[C@@H](OC(=O)C(CO)c1ccccc1)C2` (some centres not stated) [Methylatropine nitrate], the HCT116-GFP viability amounted to 102%.

For the molecule `CN1C[C@H](C(=O)N[C@]2(C)O[C@@]3(O)[C@@H]4CCCN4C(=O)[C@H](Cc4ccccc4)N3C2=O)C[C@@H]2c3cccc4[nH]cc(c34)C[C@H]21` [Dihydroergotamine tartrate], the HCT116-GFP viability came to 103%.
